Data taken from paper PMC6919601, “Identification of Plasmodium dipeptidyl aminopeptidase allosteric inhibitors by high throughput screening” (PLoS ONE, 2019).
Screen size: about 110,000 compounds; about 230 (0.21%) showed an effect of 50% or more. The list shows a part of the results.

Target: DPAP1 (Plasmodium falciparum, UniProt Q8IIJ9)
Test: primary screen, percent inhibition; read by cleavage of a fluorogenic dipeptide substrate; higher = more effect of the substance
Set-up: species or system P. falciparum D10 trophozoite lysates; single well
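Note: 30 min substrate incubation versus DMSO and 10 µM JCP410 controls.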

Chain of DPAP1 (Q8IIJ9 whole entry, looked up): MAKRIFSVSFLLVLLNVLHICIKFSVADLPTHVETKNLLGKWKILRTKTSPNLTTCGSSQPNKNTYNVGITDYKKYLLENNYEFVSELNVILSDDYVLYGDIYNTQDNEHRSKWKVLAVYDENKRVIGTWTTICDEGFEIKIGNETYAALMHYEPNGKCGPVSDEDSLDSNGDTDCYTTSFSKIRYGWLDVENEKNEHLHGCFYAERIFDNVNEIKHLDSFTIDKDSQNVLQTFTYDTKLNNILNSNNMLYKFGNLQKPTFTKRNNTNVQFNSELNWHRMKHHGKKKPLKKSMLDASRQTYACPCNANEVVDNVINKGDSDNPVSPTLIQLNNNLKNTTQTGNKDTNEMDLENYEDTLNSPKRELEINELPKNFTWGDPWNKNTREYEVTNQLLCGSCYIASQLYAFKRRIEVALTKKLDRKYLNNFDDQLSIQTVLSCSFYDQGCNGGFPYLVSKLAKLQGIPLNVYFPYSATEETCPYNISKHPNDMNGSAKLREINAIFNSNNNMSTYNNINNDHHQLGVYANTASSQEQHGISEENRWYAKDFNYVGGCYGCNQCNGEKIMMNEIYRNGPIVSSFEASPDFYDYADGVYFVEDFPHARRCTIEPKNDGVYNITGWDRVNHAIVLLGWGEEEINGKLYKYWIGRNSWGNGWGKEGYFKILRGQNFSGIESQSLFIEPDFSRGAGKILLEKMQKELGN

| Compound | % Inhibition @ 10 uM |
| --- | --- |
| COc1ccc(Br)cc1C1CC(=O)Nc2c1c(=O)nc(SC)n2C (centres unmarked) | -3.1% |
| COc1ccc2c(CNCCCc3ccccc3)c(C(=O)O)n(C)c2c1 | 2.33% |
| Cc1oc(-c2cccs2)nc1CS(=O)CC(=O)NCc1ccc(F)cc1 (centres unmarked) | -5.58% |
| CCOc1cc(C2c3c(-c4ccccc4O)n[nH]c3C(=O)N2CCOC)ccc1O (centres unmarked) | -4.95% |
| CN(C)CCCNCc1cccn1C | 1.72% |
| CCNc1c(NS(=O)(=O)c2ccc3c(C)c(C(=O)OCC)oc3c2)c(=O)oc2ccccc12 | -2.23% |
| CCCCOc1ccc(C(=O)Nc2c3c(nn2-c2ccccc2C)CS(=O)(=O)C3)cc1 | -0.657% |
| CC(C)(C)c1ccc(C2=N/C(=C\c3ccc(F)cc3)C(=O)O2)cc1 | 0.434% |
| C=CCOc1ccc(C2C3=C(CCCC3=O)N(CCC(=O)O)C3=C2C(=O)CCC3)cc1OC | -0.984% |
| CCOC(=O)N1CCN(C2C3CC4CC(C3)CC2C4)CC1 (centres unmarked) | -4.75% |
| CC1CCc2nn(CC(=O)N3CCC4(CC3)OCCO4)cc2C1 (centres unmarked) | 4.95% |
| O=C(O)c1ccccc1C(c1ccc(O)cc1)c1ccc(O)cc1 | -3.41% |
| O=C(CCC(=O)N1Cc2ccccc2Oc2ncccc21)NCC1CCCO1 (centres unmarked) | -2.09% |
| COc1ccc(-c2c3c(nc4sc(C(=O)NCCc5ccccc5)c(N)c24)CC(C)(C)CC3=O)cc1 | 1.63% |
| Cc1noc(C)c1S(=O)(=O)N1CCCC(C(=O)NCCN2CCN(Cc3ccccc3)CC2)C1 (centres unmarked) | -2.83% |
| Cc1cc(C(F)(F)F)c(C#N)c(SCC(=O)Nc2ccc(F)cc2)n1 | 4.75% |
| COc1ccc(C2C(C#N)=C(N)N(c3c(F)cccc3F)C3=C2C(=O)CCC3)cc1OC (centres unmarked) | 3.26% |
| CCc1nnc(SCc2cccc(F)c2)c2cc3oc(C)cc3n12 | 5.69% |
| O=C(c1cnn2ccccc12)N1CCC(C(O)(c2ccccc2)c2ccccc2)CC1 | -6.52% |
| O=C(Nc1cc(NC(=O)c2ccccc2)c(C(=O)O)cc1C(=O)O)c1ccccc1 | 3.25% |
| NCCCc1nc2cc3sc(CCCN)nc3cc2s1 | -3.49% |
| Cc1cc(Cl)ccc1N(CC(=O)N1CCCCCC1)S(C)(=O)=O | 4.76% |
| CCc1c(C)sc(NC(=O)COCc2cc(-c3ccc4c(c3)OCO4)on2)c1C#N | 1.34% |
| CC(=O)N1C(=N)S/C(=C/c2cc3cccc(C)c3nc2N2CCCCC2)C1=O | 6.7% |
| Cc1ccccc1-c1nc(CS(=O)(=O)CC(=O)NCCCOC(C)C)c(C)o1 | -1.89% |
| COc1ccc(-c2nc3c4cnn(Cc5ccccc5)c4ncn3n2)cc1OC | 0.362% |
